# Measurements as given in article PMC12040169 (PLOS Biology, 2025).
# The other results are listed elsewhere or left out.
# Tested on: T1, C. trachomatis L2/434/Bu expressing GFP (CTL2-GFP)
# T1 construct: L2/434/Bu GFP intracellular growth in HeLa cells
# Parameters: species or system HeLa; C. trachomatis total inclusion area by high-content imaging, normalised to DMSO
# Details: total inclusion area; 28.5 h, 10 µM; inhibitor
# Method in brief: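 Host cell viability was gauged from Hoechst-stained nuclei counts, while chlamydial growth was taken from total inclusion area and inclusion number per well. Cells were fixed and imaged by high-content microscopy once bulk GFP and resorufin fluorescence had been measured.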
row,SMILES,% of control remaining
1,O=C(CSc1ncnc2[nH]ncc12)c1ccc(-c2ccccc2)cc1 [CBK300519],143.425
2,CN1CCC(N[C@H]2CC(C)(C)[C@@H]3C[C@@](C)(O)CC[C@]23CCC(=O)N2CCOCC2)CC1 [CBK289040],108.754
3,O=C(Cn1nnc2ccccc21)NC(c1ccccc1)c1ccccc1 [CBK297488],75.1743
4,Cc1ccc(Nc2ncc(C(=O)NCCCN3CCCCCC3)c3ccccc23)cc1Cl [CBK291197],104.486
5,O=C(CC1Nc2ccccc2NC1=O)Nc1ccc(F)c(Cl)c1 (stereo not drawn) [CBK266381],103.671
6,O=C(CCOc1ccccc1)Nc1cnc(-c2ccc(F)cc2)c(-c2ccco2)n1 [CBK036967],80.9841
7,COc1ccc(Br)cc1S(=O)(=O)NCC(=O)Nc1ccc(F)cc1 [CBK042223],63.0956
8,C=CCn1c(=O)c(C(=O)NCCCO)c(O)c2ccccc21 [CBK262481],78.6167
9,Cc1nn(CC(=O)N2CCCCC2)c(=O)c2cc3sccc3n12 [CBK284040],107.102
10,Cc1ccc(NC(=O)c2cc(NC(=O)c3ccccc3C(=O)O)ccc2N2CCCCC2)cc1 [CBK265332],91.0348
11,COc1ccc(NS(=O)(=O)c2cc(C(=O)O)cc(C)c2C)cc1OC [CBK295148],77.5171
12,Cn1ccnc1C(O)(c1ccccc1)c1nccn1C [CBK262084],91.5377
13,Cc1ccc(-c2cc(CC3(C(=O)NC4CC4)CCOCC3)on2)cc1 [CBK284946],74.8614
14,c1cncc(CNc2nc(-c3cccs3)cn3ccnc23)c1 [CBK066687],125.346
15,COc1ccccc1-c1nccnc1NCC(C)O (stereo not drawn) [CBK037637],90.5866
16,COc1cncc(-c2cc(Nc3ccc(O)cc3)ncn2)c1 [CBK090752],92.637
17,CC1(C)CC(=O)C(C(=S)Nc2ccc(F)cc2)=C(NCc2ccc3c(c2)OCO3)C1 [CBK264779],123.401
18,c1c(CC2CCCCC2)nnn1[C@H]1CO[C@H]2[C@@H]1OC[C@@H]2NCC1CC1 [CBK289511],78.3771
19,CCOc1ccc(NC(=O)N(Cc2ccccn2)CC2CCCO2)cc1 (stereo not drawn) [CBK306847],84.0776
20,O=C(Cc1ccccc1)Nc1ccc(Oc2ccc(C(=O)O)c(C(=O)O)c2)cc1 [CBK263611],99.6713
21,COc1ccc(OCC(=O)Nc2cc3oc4ccccc4c3cc2OC)cc1 [CBK262608],102.342
22,COCCN1C(=O)C2(CC(=O)N(Cc3ccccc3)C2=O)c2cc(OC)ccc21 (stereo not drawn) [CBK075177],92.5964
23,Cc1cc(NC(=O)c2ccc(Br)cc2)nc2c1c(=O)oc1ccccc12 [CBK291262],96.1533
24,Cc1[nH]c2ccccc2c1C(=O)CSc1nc(N)cc(=O)[nH]1 [CBK297511],69.4434
25,CN(C)c1cccc(-c2cc(Nc3ccc4c(c3)OCCO4)ncn2)c1 [CBK090808],51.7227
26,CCNS(=O)(=O)c1ccc2c(c1)N(Cc1nc(-c3ccco3)no1)CC2 [CBK306184],29.0182

row,SMILES,% of control remaining
1,Nc1cc(Cl)nc(SCC2CCCCC2)n1 [CBK007970],30.0599
2,Nc1cc(O)n(Cc2ccco2)c(=S)n1 [CBK006010],86.9611
3,CCCCCOc1ccc(NS(=O)(=O)c2cccc(C(=O)O)c2)cc1 [CBK299795],107.091
4,FC(F)(F)c1ccc(CN2CCC(Oc3nccnc3OCc3cccnc3)CC2)cc1 [CBK083160T],100.343
5,O=C(C1CC2C=CC1C21CC1)N1CCC(Oc2cccnc2)CC1 (stereo not drawn) [CBK281501],92.9074
6,CCN1C(=O)COC[C@@H]1[C@H](O)c1ccc(NC(=O)c2ccc(C#N)cc2)cc1 [CBK289689],101.575
7,Cc1cc(=O)[nH]c(C)c1C(=O)N1CCC(N2CCCC(CO)C2)CC1 (stereo not drawn) [CBK307158],83.0477
8,O=C(Cc1ccsc1)N1CCN(C(=O)c2ccco2)CC1 [CBK144446],84.9889
9,CC(CNC(=O)COc1cc(Cl)c(Cl)cc1Cl)CN(C)C (stereo not drawn) [CBK266766],105.21
10,CC(C)(C)c1ccc(-c2ccc3ccc(N)nc3n2)cc1 [CBK061872],75.291
11,OCCn1c(COc2cccc3cccnc23)nc2ccccc21 [CBK269942],76.1981
12,O=C(c1[nH]c2ccccc2c1NS(=O)(=O)Cc1ccccc1)N1CCOCC1 [CBK050067],80.4843
13,O=C(NCc1cccnc1)C(=O)Nc1cc2c3c(c1)CCC(=O)N3CCC2 [CBK287728],78.5594
14,CCCN(CC1CC1)C(=O)Cn1c([C@@H]2CCCO2)cc2cccnc21 [CBK282871],83.6692
15,O=C(CNS(=O)(=O)c1ccc(Cl)c(Cl)c1Cl)N1CCOCC1 [CBK034472],101.511
16,O=C(NCCNCc1ccccc1)c1ccccc1 [CBK012505],22.7125
17,CC(C)C(CCC(=O)Nc1ccccc1[N+](=O)[O-])C(=O)O (stereo not drawn) [CBK268356],108.622
18,Cc1ccccc1CSCC(=O)Nc1c[nH]c(=O)[nH]c1=O [CBK269790],77.9342
19,CC(C)(C)Nc1c(C2CCCN(C(=O)C3CC3)C2)nc2ccccn12 (stereo not drawn) [CBK284759],79.4101
20,CC1(C)CC(/N=C(\c2ccccc2)c2ccc(O)cc2O)CC(C)(C)N1 [CBK262004],86.2874
21,COCc1nnc(NS(=O)(=O)c2ccc(Br)cc2)s1 [CBK045526],122.949
22,CCCCCc1c(C)nc(-c2ccccn2)nc1O [CBK017441],42.2686
23,O=c1c(Oc2ccc3ccccc3c2)c(C(F)(F)F)oc2c(CN3CCOCC3)c(O)ccc12 [CBK264487],111.437
24,Cc1cccc(OCC(C)NC(=O)N2CCCC2c2cnn(C)c2)c1 (stereo not drawn) [CBK304100],94.1555
25,CN(C)C(=O)Cn1c(=O)n(Cc2cccs2)c2ncccc21 [CBK283902],98.0982
